The whole screen tested about 410,000 compounds, of which about 7,200 (1.8%) were called active. The shares of active, inactive and inconclusive entries below differ from those in the screen. The call rests on the fitted dose curve; in most records, active means well fitted activation curve with a large enough effect; inconclusive means small, poorly fitted or top-dose-only effect, or another doubt; inactive means no such curve, though single readings can be large or run the other way. No potency is given beside an inconclusive call; the fits are too rough.
assay: qHTS of TDP-43 Inhibitors; conditions: TDP-43 expressing yeast growth rescue, BacTiter-Glo, 24 h; growth rescue (activation): at 46.1 µM (top of the series) unless noted; further: nearly all actives have a fitted effect of over 50% in size; on growth rescue (activation): % of control where 0% means no effect
Procedure, shortened: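 Readout is BacTiter-Glo luminescence of cell growth, so inhibitors register as activators. TDP-43-expressing yeast at OD600=0.02 in galactose medium, after raffinose pregrowth to mid-log, were incubated with compound for 24 hr at 30 deg C.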
Potency means the concentration at half of the fitted maximal effect; tags describe the fitted curve by direction and shape.

Compound | Potency | growth rescue (activation)
O=C(c1ccc(F)cc1)N1CCN(S(=O)(=O)c2ccc3c(c2)OCCO3)CC1 | inactive | –
COc1ccc(-c2oc3cccnc3c2/C=C/c2ccc(OC)c(OC)c2)cc1 | inconclusive [activator, single point] | –
O=C1COc2ccc(C(=O)CCl)cc2N1 | – | inactive: 4.99% [at 1.82 µM]
OC(c1ccc(F)c(F)c1)c1nc(-c2cnc3ccccc3c2)cs1 (stereo unspecified) | active: 22.4 µM | –
CC1(C(=O)NCc2cccc3ccccc23)CCN1C(=O)Cc1ccc(-c2ccccc2)cc1 (stereo unspecified) | inconclusive [activator, partial curve, poor fit] | –
Cc1cccc(Nc2nnc(-c3ccc(C)c(S(=O)(=O)N4CCN(C)CC4)c3)c3ccccc23)c1 | inactive | –
N#C/C(=C\c1c(Cl)cccc1Cl)c1nc2ccccc2[nH]1 | active: 11.2 µM | –
COC(=O)c1ccc(Oc2c(F)c(F)nc(N3CCOCC3)c2F)cc1 | inconclusive [activator, single point] | –
COc1ccc(NC(=O)C(c2ccccc2)n2c(=O)c(-c3cc4ccccc4[nH]3)nc3ccccc32)cc1 (stereo unspecified) | inconclusive [activator, full curve, poor fit] | –
FC(F)Oc1ccccc1NC(=S)Nc1cccc(Cl)c1Cl | active: 17.8 µM | –
COc1cc(O)cc2cc3c(c(O)c12)C(=O)CC(C)(O)O3 (stereo unspecified) | inconclusive [activator, full curve, poor fit] | –
CCOc1ccccc1OCc1nn2c(-c3ccc(C)cc3)nnc2s1 | inconclusive [activator, single point] | –
CC1CCc2c(c3ccccc3n2C(=O)CCl)C1 (stereo unspecified) | active: 2.82 µM | –
COc1ccc(OC)c(NC(=O)N2CC3CCCN3c3ccccc32)c1 (stereo unspecified) | inconclusive [activator, single point] | –
Cc1cc(Nc2ccc(Br)c(C)c2)n2nc(-c3ccco3)nc2n1 | inconclusive [activator, partial curve] | –
COc1cccc(N2CCN(c3ncnc4c3c(-c3ccccc3)cn4-c3cccc(C(F)(F)F)c3)CC2)c1 | inactive | –
COc1ccccc1N1CCN(C(=O)C(C)N(c2ccccc2)S(C)(=O)=O)CC1 (stereo unspecified) | inconclusive [activator, full curve, poor fit] | –
CC(=O)c1cc2c(cc1NC(=O)c1cc3nc(C(C)C)cc(C(F)(F)F)n3n1)OCO2 | inconclusive [activator, full curve, poor fit] | –
COc1c(F)cccc1C1=CC(=O)C[C@H](c2ccc3c(c2)OCO3)C1 | active: 22.4 µM | –
O=c1c2ccccc2oc2cc(C#Cc3ccccn3)ccc12 | inconclusive [activator, full curve] | –
CCC(C)NC(=O)c1c(C)oc2nc(C)nc(N3CCOCC3)c12 (stereo unspecified) | inactive | –
Cc1cc(C)n(-c2nc(C)c(C)c(=O)n2CC(=O)Nc2cccc([N+](=O)[O-])c2)n1 | inactive | –
COc1ccc(-c2oc(=O)c3cc(OC)c(OC)cc3c2C#CC2(O)CCCCC2)cc1 | inconclusive [activator, partial curve] | –
CO/N=C(\Cn1ncc(N2CCCC2)c(Cl)c1=O)c1ccc(Cl)cc1 | inconclusive [activator, single point] | –

Compound | Potency | growth rescue (activation)
CCCCCCC(=O)OCC(=O)c1ccc2c(c1)NC(=O)CO2 | active: 15.8 µM | –
COc1ccc(-c2noc(CN(C)S(=O)(=O)c3ccc(C)cc3)n2)cc1 | inconclusive [activator, single point] | –
CCn1c(SCc2nc(-c3ccccc3)no2)nnc1-c1cccs1 | active: 12.6 µM | –
Cc1cc(Br)cn2c(Cc3ccsc3)c(-c3ccco3)nc12 | – | inconclusive: -85.1% [activator]
CCC1OC2(C)OC(=N)C1(C#N)C(C#N)(C#N)C2c1ccccc1 (stereo unspecified) | inactive | –
COc1ccc(-c2cc3nc(C)c(CCC(=O)NC(C)c4ccccc4)c(C)n3n2)c(OC)c1 (stereo unspecified) | inactive | –
COc1ccc(-c2onc(C)c2C)cc1S(=O)(=O)N1CCN(c2cc(C)ccc2C)CC1 | inactive | –
Fc1ccc(C2CC(c3ccccc3)Nc3ncnn32)cc1 (stereo unspecified) | inconclusive [activator, partial curve] | –
Cc1cc([N+](=O)[O-])cnc1NC(C)c1ccccc1 (stereo unspecified) | inconclusive [activator, partial curve] | –
O=C(O)c1cc(-c2ccc(-c3ccc(F)cc3)o2)nc2ccccc12 | inconclusive [activator, single point] | –
CCOc1ccc(N(CC)S(=O)(=O)N2CCCC(C(=O)Nc3ccc(OC)c(Cl)c3)C2)cc1 (stereo unspecified) | inactive | –
Cc1[nH]nc(Nc2ccccc2)c1[N+](=O)[O-] | inconclusive [activator, single point] | –
Cc1ccc(C2CCN(C(=O)c3cnn(-c4ccc(C)c(C)c4)c3C3CCN(C(=O)OC(C)(C)C)CC3)C2)cc1 (stereo unspecified) | inactive | –
COc1ccc(NS(=O)(=O)c2c(C)cc(C)cc2C)cc1 | inconclusive [activator, single point] | –
CCOc1ccccc1C(=O)N1CCC(c2nc3ccccc3o2)CC1 | inactive | –
Cc1nc(SCC(=O)Nc2ccc(C(=O)O)cc2)n[nH]1 | inactive | –
FC(F)Oc1ccc(-n2cc(-c3ccccc3)[n+]3c2CCCCC3)cc1 | inactive | –
COC(=O)c1sc2ccccc2c1NC(=O)c1cccs1 | inconclusive [activator, single point] | –
Cc1cc(N=Nc2ccc3ccccc3c2)ccc1O | – | inconclusive: -91.4% [activator]
Cc1ccc(OCCCC(=O)N(C)CC(=O)Nc2ccccc2Cl)cc1 | inconclusive [activator, partial curve] | –
COC1CCC2(C)C(=CCC3C4CC(O)CC4(C)CCC32)C1 (stereo unspecified) | active: 14.1 µM | –
CCC(C)(C)n1nnnc1C(c1cc2cc3c(cc2[nH]c1=O)OCO3)N1CCCCC1 (stereo unspecified) | inactive | –
Cn1cnc([N+](=O)[O-])c1Sc1ccc(C(C)(C)C)cc1 | inconclusive [activator, partial curve] | –
N/C(=N\OC(=O)c1cccc(Cl)c1)c1cccnc1 | inconclusive [activator, partial curve] | –

Compound | Potency | growth rescue (activation)
Cc1cccc(-c2nc3scc(CCNS(=O)(=O)c4ccc(F)c(C(F)(F)F)c4)n3n2)c1 | inactive | –
O=C1c2ccccc2C(=O)N1CCc1csc(-c2ccc(F)cc2)n1 | inconclusive [activator, single point] | –
COc1ccc(NC(=O)c2cc(-c3ccc(F)cc3OC(C)C)n[nH]2)c(OC)c1 | active: 25.1 µM | –
Cc1cc2ncn(-c3nnnn3-c3ccccc3)c2cc1C | active: 17.8 µM | –
CC(=O)c1cccc(NC(=O)C2Cc3c(-c4cccc(F)c4)ccnc3O2)c1 (stereo unspecified) | inconclusive [activator, single point] | –
COc1ccccc1-c1cc(C(=O)N2CCCc3ccccc32)no1 | inconclusive [activator, partial curve] | –
COc1ccccc1OCCNC(=O)CN1C(=O)NC2(CCCCC2)C1=O | inconclusive [activator, single point] | –
CSc1ccc(C(=O)C2CCCN(S(=O)(=O)N(C)C)C2)cc1 (stereo unspecified) | inconclusive [activator, single point] | –
Cc1c(C(=O)Nc2ccc(Oc3ccccc3)cc2)sc2nc3n(c(=O)c12)CCC3 | inconclusive [activator, single point] | –
Cc1ccc(-n2c(CCc3ccccc3)n[nH]c2=S)cc1C | inconclusive [activator, partial curve] | –
CSc1ccccc1C(=O)N1CCN(c2ccc(F)cc2)CC1 | inconclusive [activator, partial curve] | –
COC(=O)N1C(=O)[C@](c2ccc(OC)cc2)(C(C)C)N1C(=O)OC | active: 17.8 µM | –
CCCCC[C@@H]1C=C(C(=O)O)[C@H](c2ccc(Cl)cc2)N1S(=O)(=O)c1ccc(C)cc1 | inconclusive [activator, single point] | –
Cc1ccc(S(=O)(=O)NCC(c2ccco2)N2CCc3ccccc32)cc1 (stereo unspecified) | inconclusive [activator, single point] | –
S=c1[nH]ncn1/N=C/c1cccc(Oc2ccccc2)c1 | inconclusive [activator, single point] | –
COc1cc(/C=C/C(=O)O)cc(OC)c1 | inconclusive [activator, single point] | –
CC(C)c1cccc(-c2csc(C(O)c3ccccc3)n2)c1 (stereo unspecified) | active: 17.8 µM | –
Fc1ccc(CNC(=S)Nc2ccccc2Cl)cc1 | inconclusive [activator, partial curve] | –
COc1ccc(C2=NS(=O)(=O)N(C)C(C(=O)N3CCc4ccccc4C3)=C2)cc1OC | inconclusive [activator, single point] | –
CCOC(=O)C1=CCN(S(=O)(=O)c2ccccc2C)C1c1cccc(F)c1 (stereo unspecified) | inconclusive [activator, partial curve] | –
CC(C)(C)c1nn(-c2ccccc2)c2[nH]c(=O)c(CNCc3ccco3)cc12 | inconclusive [activator, single point] | –
COc1cc(/C=N/NC(=O)C(=O)NCc2ccco2)cc(Cl)c1O | inactive | –
O=C(Cn1c(=O)c(CNc2ccccc2)cc2cc3c(cc21)OCCO3)Nc1ccccc1Cl | inactive | –
